87 compounds from publication PMC4336329 (PLoS ONE, 2015) can be followed below.

Out of some 310,000 compounds screened, about 2,200 (0.71%) showed an effect of 50% or more. Effects have a minus sign here. The list shows a part of the results.

The target in this test is human ether-à-go-go-related gene (hERG) potassium channel (human, UniProt Q12809). In words: primary screen, population patch clamp on CHO cells stably expressing hERG.
Chain of human ether-à-go-go-related gene (hERG) potassium channel (Q12809 whole entry, looked up): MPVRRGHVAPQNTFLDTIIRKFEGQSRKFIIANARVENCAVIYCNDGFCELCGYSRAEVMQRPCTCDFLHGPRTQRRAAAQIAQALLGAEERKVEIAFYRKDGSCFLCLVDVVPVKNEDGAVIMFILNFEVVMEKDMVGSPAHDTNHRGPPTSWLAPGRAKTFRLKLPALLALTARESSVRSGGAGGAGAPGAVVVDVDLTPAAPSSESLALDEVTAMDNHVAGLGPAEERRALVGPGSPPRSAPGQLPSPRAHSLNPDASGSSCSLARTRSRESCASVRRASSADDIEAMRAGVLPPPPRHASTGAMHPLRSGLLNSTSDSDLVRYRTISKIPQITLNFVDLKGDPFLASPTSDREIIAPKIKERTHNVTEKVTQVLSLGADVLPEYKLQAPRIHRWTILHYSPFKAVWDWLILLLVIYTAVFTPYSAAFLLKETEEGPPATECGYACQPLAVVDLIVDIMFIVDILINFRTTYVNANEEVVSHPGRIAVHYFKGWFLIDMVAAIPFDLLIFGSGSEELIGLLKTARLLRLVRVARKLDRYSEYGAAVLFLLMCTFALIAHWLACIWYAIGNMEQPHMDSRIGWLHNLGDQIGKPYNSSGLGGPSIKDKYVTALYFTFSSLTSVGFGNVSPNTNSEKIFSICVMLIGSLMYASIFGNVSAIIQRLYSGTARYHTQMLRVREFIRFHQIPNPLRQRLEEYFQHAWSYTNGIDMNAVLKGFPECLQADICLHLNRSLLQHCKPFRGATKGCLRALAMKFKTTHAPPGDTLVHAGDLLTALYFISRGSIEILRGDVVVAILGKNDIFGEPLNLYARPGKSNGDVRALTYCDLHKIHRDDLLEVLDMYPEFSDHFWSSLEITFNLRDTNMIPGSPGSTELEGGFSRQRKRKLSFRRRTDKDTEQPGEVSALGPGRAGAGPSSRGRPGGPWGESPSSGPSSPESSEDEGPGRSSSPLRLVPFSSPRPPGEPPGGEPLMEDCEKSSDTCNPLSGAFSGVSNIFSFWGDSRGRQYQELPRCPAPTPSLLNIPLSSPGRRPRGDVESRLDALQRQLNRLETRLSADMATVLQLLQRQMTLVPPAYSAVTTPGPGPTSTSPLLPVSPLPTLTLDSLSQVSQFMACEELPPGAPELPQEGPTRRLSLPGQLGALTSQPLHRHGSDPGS
For the compound `Cc1ccsc1/C=N/NC(=O)C1CC(=O)N(c2ccccc2)C1` (stereo not drawn), the “hERG current change (%, negative = inhibition) at 1uM” value is recorded as -3.07%.

With `CS(=O)(=O)n1nc(NCc2cccs2)nc1NCc1cccs1`, the “hERG current change (%, negative = inhibition) at 1uM” value is reported as 10.5%. The figure for `CCC(=O)NNc1cccc(Cl)n1` is 8.04%; for `COC(=O)CCN(C)CCC(=O)OC.Cl` it is 6.66%.

For `O=C(CC1SC(=NC2CCCCC2)NC1=O)Nc1ccccc1` (stereo not drawn), the “hERG current change (%, negative = inhibition) at 1uM” value is 11.9%. Under `CCOC(=O)N1CCN(Cc2ccc(OCC(O)CN3CCCCC3)cc2)CC1` (stereo not drawn) stands 17.4%; under `CC(C)CS(=O)(=O)C1=NN2C(=N)/C(=C\c3ccc(OC(=O)c4ccco4)cc3)C(=O)N=C2S1`, 3.57%. The figure for `CN1CCN(c2ccc(-c3cccc(NC(=O)COc4ccc(Cl)cc4Cl)c3)nn2)CC1` is 5.98%; for `CCCCCN1CN(S(=O)(=O)c2cccs2)c2nc3ccccc3nc21` it is 6.37%.

`CC(C)(C)C1CCC(=NNC(=O)CN(c2ccccc2)S(=O)(=O)c2ccccc2[N+](=O)[O-])CC1` (stereo not drawn): the “hERG current change (%, negative = inhibition) at 1uM” value was 14%. Turning to `c1ccc(COc2ccc(OCCOCCn3cncn3)cc2)cc1`, the “hERG current change (%, negative = inhibition) at 1uM” value is on record as -5.15%. Under `CCOC(=O)C1=C(C)NC(=S)NC1c1ccc(OCC(=O)N2CCCCC2)cc1` (stereo not drawn) stands 6.25%. For the compound `CCOc1ccccc1-n1c(SCC(N)=O)nnc1-c1ccccc1`, the “hERG current change (%, negative = inhibition) at 1uM” value worked out at 2.08%. Consider `Cc1noc(NS(=O)(=O)c2ccc(NC(=O)CSc3nc4c(cc3C#N)CCCCC4)cc2)c1C`, for which the “hERG current change (%, negative = inhibition) at 1uM” value was -0.778%.

Consider `CNS(=O)(=O)c1ccc(NC(=O)c2ccoc2C)cc1`, for which the “hERG current change (%, negative = inhibition) at 1uM” value came out at 11%. As to `Cc1cnc(C(=O)OCC(=O)Nc2ccc(Br)cc2F)cn1`, the “hERG current change (%, negative = inhibition) at 1uM” value is on record as 11.2%. Under `C/C(=N\Nc1ccccc1)c1cccc(N)c1` stands 12.4%; under `C=CCn1c(SCC(=O)Nc2ccccc2C)nnc1-c1ccncc1`, 13.2%; under `CCOc1ccc2oc(C(=O)NCc3nc4ccccc4[nH]3)c(C)c2c1`, 13.3%.

With `CCCc1sc(N)nc1-c1ccc(C)cc1`, the “hERG current change (%, negative = inhibition) at 1uM” value was determined as 0.826%. Under `COC(=O)c1ccc(Nc2nc(C)nc3c2nnn3Cc2ccccc2)cc1` stands 15.4%. Under `CC(C)Oc1cccc(C(=O)NC(=S)Nc2cccc(NC(=O)c3ccccc3Cl)c2)c1` stands -1.78%; under `COc1ccc(/C(C)=N/NC(=O)c2nc(C)cc(C)n2)cc1`, 5.24%; under `COc1ccc(-c2cc(C(=O)N3CCN(c4ccccc4)CC3)no2)cc1OC`, 17.8%. The figure for `Cc1cc(=O)n2[nH]c(-c3sccc3-n3c(C)ccc3C)cc2n1` is 8.77%; for `Cc1cc(OCCN2CCOCC2)ccc1Cl` it is 11.8%; for `O=C(Nc1nccs1)c1c(O)c2c(n(Cc3ccco3)c1=O)CCCC2` it is 13.9%. Consider `Fc1ccc(Cn2nnc(-c3ccc(CN4CCOCC4)cc3)n2)cc1`, for which the “hERG current change (%, negative = inhibition) at 1uM” value is on record as -1.65%. Under `COc1ccc(OC)c(S(=O)(=O)N2CCC(C(=O)NCc3ccc4c(c3)OCO4)CC2)c1` stands 1.15%; under `COc1ccc(/C=C(/CC(=O)Nc2ccccc2)c2nc3ccccc3s2)cc1`, 3.13%; under `CCn1nnc(-c2ccccc2NC(=O)c2ccc(-n3cnnn3)cc2)n1`, -0.981%.

In the case of `C/C(=N\NC(=O)c1cccc(N/N=C(\C)c2ccncc2)c1)c1ccncc1`, the “hERG current change (%, negative = inhibition) at 1uM” value is recorded as -1.1%.

Regarding `Cc1nn(CC(=O)Nc2ccc3c(c2)nc2n3CCOC2)c(=O)c2ccccc12`, the “hERG current change (%, negative = inhibition) at 1uM” value is reported as 7.76%. Under `CC(NC(=O)/C(C#N)=C/c1cn(-c2ccccc2)nc1-c1ccc(F)cc1)c1ccccc1` (stereo not drawn) stands 8.31%. Regarding `COc1cc(C(=O)NNC(=S)Nc2ccc(S(N)(=O)=O)cc2)cc(OC)c1OC`, the “hERG current change (%, negative = inhibition) at 1uM” value worked out at 8.57%. Turning to `CCn1nnnc1SCC(=O)N(C1CCCCC1)C1CCCCC1`, the “hERG current change (%, negative = inhibition) at 1uM” value was -8.06%. The figure for `COc1ccc(C2=NS(=O)(=O)N(C)C(C(=O)NCc3ccco3)=C2)cc1OC` is -15.5%; for `Cc1nc(Nc2ccccc2F)c2nnn(Cc3ccccc3Cl)c2n1` it is 13.7%; for `COc1ccc(OCCCC(=O)NCCc2nc3ccccc3[nH]2)cc1` it is 9.57%. The figure for `NC(=O)c1sc2nc3c(c(-c4cccnc4)c2c1N)CCC3` is 10.9%; for `O=C(CNC(=O)C1COc2ccccc2O1)N/N=C\c1ccc(Cl)cc1` (stereo not drawn) it is -34.9%.

`COc1ccc(C)cc1-n1nnnc1SCC(=O)Nc1cc(C)on1`: the “hERG current change (%, negative = inhibition) at 1uM” value amounted to 0.44%. The figure for `CCOC(=O)C1=C(C)NC(C)=C(C(=O)OCC)C1c1cccc(C)n1` is 9.44%.

Turning to `Clc1ccc2ncc(-c3nnnn3-c3ccccc3)c(-c3ccccc3)c2c1`, the “hERG current change (%, negative = inhibition) at 1uM” value stood at 8.72%. The figure for `O=C(NNC(=O)c1ccccc1Br)c1cccc(Cl)c1` is -3.87%; for `CNc1sc(C(=O)c2ccc(F)cc2)c(N)c1-c1nc2ccccc2s1` it is 5.15%; for `CCCC(c1c(C)n(C)n(-c2ccccc2)c1=O)c1c(C)n(C)n(-c2ccccc2)c1=O` it is 11.7%. With `COc1ccc(C(=O)NCc2ccc3c(c2)OCO3)c(OC)c1`, the “hERG current change (%, negative = inhibition) at 1uM” value came out at 13.6%.

With `CCc1cc2c3c(c(=O)oc2cc1O)CCCC3`, the “hERG current change (%, negative = inhibition) at 1uM” value turned out to be 11.7%. The figure for `C(#Cc1ccccc1)CN1CCN(c2ccccn2)CC1.Cl` is 7.81%. On to `CCN1CCN(c2nc(Nc3ccc(OC)cc3)nc(N)c2[N+](=O)[O-])CC1`, for which the “hERG current change (%, negative = inhibition) at 1uM” value turned out to be 1.06%.

On to `COc1ccc(-c2noc(CCCC(=O)Nc3cccnc3)n2)cc1OC`, for which the “hERG current change (%, negative = inhibition) at 1uM” value is recorded as 11.3%. The figure for `O=C(Nc1cccc(F)c1)/C(=C\c1ccco1)NC(=O)c1cccs1` is 0.665%; for `CCCCCOC(=O)Nc1ccc(S(=O)(=O)Nc2cccc([N+](=O)[O-])c2)cc1` it is 0.755%.

Turning to `CCC(=O)N1CCc2cc(S(=O)(=O)CCC(=O)Nc3ccc(C)c(F)c3)ccc21`, the “hERG current change (%, negative = inhibition) at 1uM” value is listed as -0.0505%. In the case of `CCOC(=O)c1cc(NC(=O)COc2ccc([N+](=O)[O-])cc2)cc(C(=O)OCC)c1`, the “hERG current change (%, negative = inhibition) at 1uM” value is given as 2.75%. Under `O=S(=O)(c1ccccc1)c1nc(NCc2cccnc2)sc1Cl` stands -0.577%; under `Clc1ccc(Cl)c(-c2nn3c(Cn4cnc5ccccc54)nnc3s2)c1`, 14%. Under `CC(C)CCOc1cccc(OCC(=O)NC2CCS(=O)(=O)C2)c1` (stereo not drawn) stands 3.43%; under `COc1ccc(/C(C)=N/N2CCOCC2)c(O)c1`, 12.1%; under `O=C(CC1NCCNC1=O)Nc1ccc2c(c1)OCO2` (stereo not drawn), 0.851%. Under `CCn1c(SCC(=O)c2cc(OC)ccc2OC)nnc1C1CC1` stands 11.3%.

Regarding `CC1Oc2ccccc2C=C1/C=N/NC(=O)c1ccccc1O` (stereo not drawn), the “hERG current change (%, negative = inhibition) at 1uM” value was determined as 0.935%. Under `CC(C)c1ccccc1NC(=S)N1CCN(S(=O)(=O)c2cccs2)CC1` stands 11.9%; under `CCOC(=O)c1cnc(SCc2nc(N)nc(Nc3ccccc3)n2)nc1N`, 12%. Under `Cc1cccc(C)c1OCCCCc1c(C)n[nH]c1C` stands 1.05%; under `COC(=O)CN1C(=O)C(O)(CC(=O)c2cccc(Br)c2)c2ccccc21` (stereo not drawn), 10.7%; under `CC1(C)CC(O)(CNCc2ccc3c(c2)OCO3)CCO1` (stereo not drawn), 8.72%. Under `CCOC(=O)c1ccccc1NS(=O)(=O)c1ccc(OCC)cc1` stands 8.33%; under `CCN(CC#CCC1(O)c2ccccc2-c2ccccc21)CCO`, 11.6%; under `CC(=O)N1c2ccccc2C2CCCC[C@@H]21` (stereo partly drawn), 14.2%. As to `Cc1ccc(C(=O)COC(=O)CCC(=O)Nc2ccccc2Cl)cc1[N+](=O)[O-]`, the “hERG current change (%, negative = inhibition) at 1uM” value was found to be 8.32%.

With `Cc1cc(=O)oc2c(C)c(OCC(=O)N3CC[C@@]4(O)CCCC[C@H]4C3)ccc12`, the “hERG current change (%, negative = inhibition) at 1uM” value came out at 3.58%. Consider `N#CC1=C(N)Oc2n[nH]c(-c3ccc(F)cc3)c2C1c1cccc(OC(=O)N2CCOCC2)c1` (stereo not drawn), for which the “hERG current change (%, negative = inhibition) at 1uM” value is on record as 5.82%. As for `Cc1ccc(S(=O)(=O)NNC(=O)c2ccoc2C)cc1`, the “hERG current change (%, negative = inhibition) at 1uM” value was -5.97%. In the case of `CCN1CCN(c2cc(N3CCN(C(=O)c4ccco4)CC3)c3c4c(onc24)-c2ccccc2C3=O)CC1`, the “hERG current change (%, negative = inhibition) at 1uM” value is recorded as 9.64%.

For `CC(=O)NC1=NN(C(C)=O)C(c2ccc(F)cc2)S1` (stereo not drawn), the “hERG current change (%, negative = inhibition) at 1uM” value is 9.21%. As for `O=C(CSc1nc2nn(-c3ccccc3)c(=O)c-2c2n1CCCCC2)c1ccc(O)c(O)c1`, the “hERG current change (%, negative = inhibition) at 1uM” value is 1.24%. The figure for `CSCCC(NC(=O)c1ccc(=O)n(C)n1)c1nc2ccccc2[nH]1` (stereo not drawn) is -11%; for `CC1(C)OC(=O)C(=CNc2ccccc2)C(=O)O1` it is 2.21%. Under `CCN(CC)CC(=O)NC1CC(C)(C)Cc2c1cnn2-c1ccc(F)cc1` (stereo not drawn) stands 16.2%. Under `O=C(NCCCN1CCCC1=O)c1ccc2c(=O)n(Cc3ccco3)c(=S)[nH]c2c1` stands 1.88%; under `Cc1cc(/C=N/NC(=O)C(=O)NCc2ccccn2)c(C)n1-c1cccc(Br)c1`, 3.67%; under `CN(CC(=O)N1CCN(c2ccccc2)CC1)C1CCCc2ccccc21` (stereo not drawn), 5.75%. With `COC(=O)c1cc(S(=O)(=O)N2CCCC(C)C2)cn1C` (stereo not drawn), the “hERG current change (%, negative = inhibition) at 1uM” value is recorded as -5.67%. For `COC(=O)[C@@H](NC(=O)O[C@@H]1C(=O)c2ccc(OC)cc2O[C@H]1c1cccc(C(F)(F)F)c1)C(C)C`, the “hERG current change (%, negative = inhibition) at 1uM” value is listed as 15.9%. Regarding `COc1ccccc1N(C)S(=O)(=O)c1ccc(C(=O)OCC(=O)NCC(F)(F)F)cc1`, the “hERG current change (%, negative = inhibition) at 1uM” value was determined as 7.93%.
